57 compounds from publication PMC4336329 (PLoS ONE, 2015) can be followed below.

About 14,000 (4.5%) of roughly 310,000 compounds showed an effect of 50% or more. Effects have a minus sign here. The list shows a part of the results.
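Further: peak tail current of the secondary pulse compared with the same well before compound.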

For the assay, the target named is human ether-à-go-go-related gene (hERG) potassium channel (human, UniProt Q12809). Put plainly: primary screen, population patch clamp on CHO cells stably expressing hERG.
Sequence of human ether-à-go-go-related gene (hERG) potassium channel (Q12809 whole entry, looked up): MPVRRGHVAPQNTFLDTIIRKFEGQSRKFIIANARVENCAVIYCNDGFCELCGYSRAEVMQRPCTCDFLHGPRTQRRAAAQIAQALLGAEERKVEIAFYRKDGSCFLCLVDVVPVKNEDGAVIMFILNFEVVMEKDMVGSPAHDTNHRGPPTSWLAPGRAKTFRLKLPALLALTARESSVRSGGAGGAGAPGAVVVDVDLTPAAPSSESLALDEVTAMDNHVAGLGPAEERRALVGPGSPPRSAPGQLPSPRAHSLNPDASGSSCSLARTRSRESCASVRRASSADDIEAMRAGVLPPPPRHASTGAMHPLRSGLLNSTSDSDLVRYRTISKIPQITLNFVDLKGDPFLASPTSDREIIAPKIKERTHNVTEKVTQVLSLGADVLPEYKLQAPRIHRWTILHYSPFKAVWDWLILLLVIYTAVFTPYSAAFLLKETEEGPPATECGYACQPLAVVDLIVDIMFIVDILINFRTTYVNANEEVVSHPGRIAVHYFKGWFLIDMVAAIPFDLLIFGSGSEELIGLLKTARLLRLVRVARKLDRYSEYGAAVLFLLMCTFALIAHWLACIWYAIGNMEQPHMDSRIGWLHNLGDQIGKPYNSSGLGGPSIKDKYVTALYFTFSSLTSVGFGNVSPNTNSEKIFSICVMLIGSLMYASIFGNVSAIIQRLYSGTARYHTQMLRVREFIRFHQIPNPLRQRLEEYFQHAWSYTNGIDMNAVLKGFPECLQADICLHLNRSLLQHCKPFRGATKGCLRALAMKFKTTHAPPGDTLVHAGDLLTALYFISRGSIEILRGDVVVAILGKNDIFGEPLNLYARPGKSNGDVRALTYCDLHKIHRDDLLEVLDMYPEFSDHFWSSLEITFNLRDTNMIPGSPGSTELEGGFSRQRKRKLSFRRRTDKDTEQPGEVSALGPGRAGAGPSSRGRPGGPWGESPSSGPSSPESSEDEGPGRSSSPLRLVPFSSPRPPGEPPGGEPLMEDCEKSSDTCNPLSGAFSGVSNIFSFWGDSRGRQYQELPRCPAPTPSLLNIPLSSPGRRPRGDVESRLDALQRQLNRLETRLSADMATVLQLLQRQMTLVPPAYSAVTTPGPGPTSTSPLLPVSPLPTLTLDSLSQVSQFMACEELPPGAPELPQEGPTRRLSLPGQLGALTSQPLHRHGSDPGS
As for `Cn1cc(SCC(=O)O)c2ccccc21`, the “hERG current change (%, negative = inhibition) at 10uM” value came to 11.2%.
For `CCCCN(CC)CCCNC(=O)c1ccc(CSc2nc3ccncc3[nH]2)cc1`, the “hERG current change (%, negative = inhibition) at 10uM” value was found to be 2.92%.
In the case of `COCCNc1ncnc2c1nc1n2CCCC1`, the “hERG current change (%, negative = inhibition) at 10uM” value amounted to 12.4%.
In the case of `CN(Cc1ccco1)C(=O)Cn1cc(S(=O)(=O)N2CCCC2)c(S(=O)(=O)N2CCCC2)c1` it was 5.78%; in that of `O=c1c2c(nc3cc(-c4ccc(Cl)cc4)[nH]n13)CCS2`, -13.9%.
As for `Cc1ccc(C)c(S(=O)(=O)NC(Cc2c[nH]c3ccccc23)C(=O)O)c1` (stereo not drawn), the “hERG current change (%, negative = inhibition) at 10uM” value turned out to be 16.4%.
As for `COc1ccc(NC(=O)COc2ccc(/C=N/O)cc2OC)cc1`, the “hERG current change (%, negative = inhibition) at 10uM” value turned out to be 1.42%.
For the compound `CC(=O)NC(CC(=O)Nc1ccc(S(=O)(=O)NC2=NCCCCC2)cc1)c1ccccc1` (stereo not drawn), the “hERG current change (%, negative = inhibition) at 10uM” value is reported as -5.71%.
For `COc1ccc(NC(=O)CSc2nc3sc(C)c(C)c3c(=O)n2Cc2ccco2)cc1`, the “hERG current change (%, negative = inhibition) at 10uM” value is listed as -6.52%.
`CCCCN(CC)C(=O)/C=C/c1cccc([N+](=O)[O-])c1`: the “hERG current change (%, negative = inhibition) at 10uM” value is given as -63.5%.
Turning to `CCOC(=O)c1ccccc1NC(=O)Cn1cnc2c(oc3ccccc32)c1=O`, the “hERG current change (%, negative = inhibition) at 10uM” value came out at 18.3%.
For the compound `O=C(NC(=S)Nc1ccccc1Cl)c1cncc(Br)c1`, the “hERG current change (%, negative = inhibition) at 10uM” value stood at 18.7%.
Take `Cc1nc(C(=O)NCCCO)cc2c1[nH]c1ccccc12`: the “hERG current change (%, negative = inhibition) at 10uM” value came to 14.5%.
For `CC(C)Cn1c(=O)c2c(nc3n2CCS3)n(C)c1=O`, the “hERG current change (%, negative = inhibition) at 10uM” value was determined as 0.226%.
Consider `O=c1cnnc(Nc2ccc(Nc3ccccc3)cc2)[nH]1`, for which the “hERG current change (%, negative = inhibition) at 10uM” value was determined as 21.2%.
Consider `O=C1COc2ccc(C(=O)COC(=O)Cc3ccc(Cl)cc3)cc2N1`, for which the “hERG current change (%, negative = inhibition) at 10uM” value was -9.51%.
`O=C(NCc1ccccc1Cl)C1CCC(=O)N(C2CCCC2)C1` (stereo not drawn): the “hERG current change (%, negative = inhibition) at 10uM” value is listed as 6.64%.
In the case of `CC(C(=O)N1c2ccccc2CC1C)N1CCN(S(=O)(=O)c2ccccc2F)CC1` (stereo not drawn) it was -29.1%.
For the compound `CCOC(=O)c1ccc(N(CC(=O)NC2CCCC2)C(=O)CNC(=O)c2ccco2)cc1`, the “hERG current change (%, negative = inhibition) at 10uM” value is reported as -18.5%.
In the case of `COCCCNC(=O)CN1CCN(Cc2ccc(Cl)cc2)C1=O` it was 1.74%.
In the case of `CCNC(=O)CP(=O)(c1ccccc1)c1ccccc1` it was 15.1%.
Turning to `O=C(CCn1c(=O)c2ccccc2n(Cc2cccnc2)c1=O)NCc1ccc2c(c1)OCO2`, the “hERG current change (%, negative = inhibition) at 10uM” value was -5.1%.
Take `COc1cc(NS(=O)(=O)c2ccc(Br)s2)cc(OC)c1`: the “hERG current change (%, negative = inhibition) at 10uM” value is reported as -6.99%.
For the compound `O=C(CCNC(=O)c1ccc([N+](=O)[O-])cc1)Nc1ccccc1N1CCOCC1`, the “hERG current change (%, negative = inhibition) at 10uM” value was -64.3%.
With `Cc1oc(-c2cccc(C(F)(F)F)c2)nc1CN1CCOCC1`, the “hERG current change (%, negative = inhibition) at 10uM” value was -3.32%.
For `COc1ccc(NC2=Nc3cccc4cccc2c34)cc1`, the “hERG current change (%, negative = inhibition) at 10uM” value is reported as -3.18%.
Regarding `ON1C2CCCCC2N(O)C1c1c(F)c(F)c(F)c(F)c1F` (stereo not drawn), the “hERG current change (%, negative = inhibition) at 10uM” value was 19.3%.
Take `CCn1c(Cc2ccccc2)nnc1SCC(=O)Nc1cc(C)on1`: the “hERG current change (%, negative = inhibition) at 10uM” value is given as 6.46%.
For `O=C(CSc1nnc(NC(=O)C2CCCCC2)s1)NCc1ccco1`, the “hERG current change (%, negative = inhibition) at 10uM” value worked out at 12.9%.
As to `Cc1ccccc1NC(=O)C1CCCN(C(=O)Nc2ccc(F)cc2)C1` (stereo not drawn), the “hERG current change (%, negative = inhibition) at 10uM” value is listed as -9.04%.
For the compound `Cc1nn(C)cc1S(=O)(=O)N1CCN(c2ccccc2)CC1`, the “hERG current change (%, negative = inhibition) at 10uM” value was -0.755%.
Turning to `O=C(Nn1c(-c2ccncc2)nc2ccccc2c1=O)c1ccc([N+](=O)[O-])cc1Cl`, the “hERG current change (%, negative = inhibition) at 10uM” value came to 6.33%.
Consider `CC1=C(C(=O)OCc2ccccc2)C(c2ccc(N3CCOCC3)cc2)NC(=O)N1` (stereo not drawn), for which the “hERG current change (%, negative = inhibition) at 10uM” value is -2.02%.
As for `Cc1cc(NC(=O)CCCSc2nc(-c3ccco3)cc(C(F)(F)F)n2)no1`, the “hERG current change (%, negative = inhibition) at 10uM” value turned out to be 16.7%.
Consider `CN(C)C(=O)c1nnsc1Sc1ccc(Cl)cc1`, for which the “hERG current change (%, negative = inhibition) at 10uM” value is recorded as -24%.
Regarding `Cc1ccc(C)c(OC(C)C(=O)Nc2nccs2)c1` (stereo not drawn), the “hERG current change (%, negative = inhibition) at 10uM” value is 3.8%.
As to `O=C(Nn1c(COc2ccccc2)nc2ccccc2c1=O)C(Cl)(Cl)Cl`, the “hERG current change (%, negative = inhibition) at 10uM” value came out at 9.26%.
In the case of `N#CCSc1ccccc1NC(=O)COc1ccc(-c2nnco2)cc1` it was -66.3%; in that of `Cc1ccc(S(=O)(=O)NNc2nc3ccccc3nc2C(F)(F)F)cc1`, 3.38%; in that of `COc1cc(OC)cc(-c2c(C#Cc3ccsc3)c3cc(-c4ccc(C(N)=O)cc4)ccc3n2C)c1`, 22.3%.
With `Cc1ccc(SCc2nc(N)nc(Nc3ccccc3C)n2)cc1C`, the “hERG current change (%, negative = inhibition) at 10uM” value was found to be 1.31%.
Regarding `Cc1ccc(S(=O)(=O)c2nnn3c2nc(N2CCOCC2)c2ccccc23)cc1C`, the “hERG current change (%, negative = inhibition) at 10uM” value is -27.4%.
As for `CCc1ccccc1N1CC23C=CC(O2)C(C(=O)O)C3C1=O` (stereo not drawn), the “hERG current change (%, negative = inhibition) at 10uM” value came to 1.61%.
In the case of `COc1ccc2nc(N3CCCC3)[nH]c2c1.Cl` it was -15.7%.
In the case of `CCOC(=O)c1c(C)oc2c1c(C=NC1CCS(=O)(=O)C1)c(O)c1ccccc12` (stereo not drawn) it was -1.88%; in that of `COC(=O)c1ccc(CSc2nnc3c(Cl)cc(Cl)cn23)o1`, 10.9%; in that of `N#Cc1ccc(Oc2ccc(-c3nc4ccccc4nc3-c3ccccc3)cc2)cc1C#N`, 4.32%.
In the case of `CCC1(C(=O)OC)CCc2c(cc(OC)c3ccccc23)C1=O` (stereo not drawn), the “hERG current change (%, negative = inhibition) at 10uM” value worked out at 3.07%.
In the case of `O=C(NCC1CC1)Nc1cccs1` it was 10.5%.
For `O=C(NC1CCCc2ccccc21)c1cncc(Br)c1` (stereo not drawn), the “hERG current change (%, negative = inhibition) at 10uM” value is 8.69%.
Turning to `CCN1CCN(CCOc2ccccc2-c2ccccc2)CC1.O=C(O)C(=O)O`, the “hERG current change (%, negative = inhibition) at 10uM” value is listed as -32.9%.
For the compound `O=C(OCC(=O)N1CCCC1)c1ccc(Cl)c([N+](=O)[O-])c1`, the “hERG current change (%, negative = inhibition) at 10uM” value is -14.4%.
In the case of `COc1ccc2c(c1OC)C(=O)OC2Nc1ccccc1S(=O)(=O)C(F)F` (stereo not drawn) it was 15.1%; in that of `CCc1cccc(OCCOCCN2CCCC2)c1.O=C(O)C(=O)O`, -46.1%.
With `O=C(Cc1ccc(Cl)c(Cl)c1)OCC(=O)c1ccc[nH]1`, the “hERG current change (%, negative = inhibition) at 10uM” value is listed as -24.9%.
With `CN(Cc1nc2ccc(F)cc2[nH]1)Cc1c(C(=O)N(C)C)nc2ccc(Cl)cn12`, the “hERG current change (%, negative = inhibition) at 10uM” value is given as -43.3%.
Consider `Cc1ccc(/C=N/NC(=O)c2ccccc2OCc2cccc(Br)c2)o1`, for which the “hERG current change (%, negative = inhibition) at 10uM” value is reported as -24%.
